Among all 45,000 compounds or so, about 65 (0.1%) were called active. Calls follow the shape of the dose curve; as a rule, active = well fitted activation curve with a large enough effect; inconclusive = small, poorly fitted or top-dose-only effect; inactive = no such curve, though single readings can be large or run the other way. The list shows a part of the results.
target: Galactocerebrosidase (Homo sapiens) (UniProt P54803); test: A Novel Cell-Based Assay to Identify Small Molecules for B -Galactocerebrosidase; conditions: 145M-Twi-hGALC-G270D cells, HMU-beta-Gal fluorescence, 48 h; series mostly up to 57.5 µM; activation: at the top concentration; also: 0% is about no effect; nearly all actives have a fitted effect of over 65% in size
UniProt P54803, sequence (P54803 whole entry, looked up): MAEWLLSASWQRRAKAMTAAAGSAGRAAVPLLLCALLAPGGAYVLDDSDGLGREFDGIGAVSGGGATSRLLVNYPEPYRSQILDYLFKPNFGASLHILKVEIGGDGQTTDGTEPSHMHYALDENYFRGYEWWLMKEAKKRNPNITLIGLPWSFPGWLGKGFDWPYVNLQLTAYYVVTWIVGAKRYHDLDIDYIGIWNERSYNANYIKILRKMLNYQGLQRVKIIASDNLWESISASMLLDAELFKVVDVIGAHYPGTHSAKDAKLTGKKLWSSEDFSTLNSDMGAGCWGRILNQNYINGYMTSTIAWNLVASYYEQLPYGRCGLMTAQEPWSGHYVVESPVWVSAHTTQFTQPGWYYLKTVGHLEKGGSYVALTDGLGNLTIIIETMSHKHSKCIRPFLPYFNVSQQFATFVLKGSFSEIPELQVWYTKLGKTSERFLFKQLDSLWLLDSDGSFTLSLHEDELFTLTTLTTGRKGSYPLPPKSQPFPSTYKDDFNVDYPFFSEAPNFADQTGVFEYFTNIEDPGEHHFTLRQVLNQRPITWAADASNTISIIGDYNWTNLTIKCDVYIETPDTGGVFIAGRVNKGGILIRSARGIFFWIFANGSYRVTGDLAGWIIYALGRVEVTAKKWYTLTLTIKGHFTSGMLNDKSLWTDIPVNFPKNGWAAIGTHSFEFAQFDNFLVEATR
How it was run: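 qHTS, 1536-well; 145M-Twi-hGALC-G270D cells (WT line also made) in DMEM/F12 + 10% FBS; compound incubation on live cells; HMU-β-gal 0.1 mM final, pH 5.2, NaTC; carbonate stop; fluorescence increase = enhanced residual activity.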

Row | Compound | activation
1 | COc1ccccc1NC(=O)C1CCCN(c2ncnc3onc(-c4ccc(F)cc4)c23)C1 (configuration not stated) | inactive: -16.8%
2 | CCC(C)NC(=O)c1c(C)oc2nc(C)nc(N3CCOCC3)c12 (configuration not stated) | inactive: -13.5%
3 | Cc1ccc(NC(=O)c2ccc3snnc3c2)cc1C | inactive: -0.535%
4 | CCOC(=O)C(C)Sc1nc(-c2ccccc2)ccc1C#N (configuration not stated) | inactive: 0.872%
5 | CCOC(=O)c1ccc(NC(=O)Cn2c3ncccc3c(=O)n2-c2ccc(C)c(C)c2)cc1 | inactive: -22.7%
6 | Cc1cc(C)n(-c2nc(C)c(C)c(=O)n2CC(=O)Nc2cccc([N+](=O)[O-])c2)n1 | inactive: -24.5%
7 | COc1ccc(-c2cc(C(=O)NCCc3ccc(OC)c(OC)c3)c3c(-c4ccc(F)cc4)[nH]nc3n2)cc1 | inactive: -10%
8 | CCOc1ccc(S(=O)(=O)N2CCC(c3ccncc3)CC2)cc1 | inactive: -2.08%
9 | COc1cccc(NC(=O)c2oc3ccc(S(=O)(=O)N4CCCCCC4)cc3c2C)c1 | inactive: 4.06%
10 | COc1ccc(S(=O)(=O)NCC(c2ccc(N(C)C)cc2)N2CCc3ccccc32)cc1F (configuration not stated) | inactive: 3.25%
11 | CCOC(=O)c1ccccc1NC(=O)COC(=O)CC(C)(C)CC1=NS(=O)(=O)c2ccccc2N1 | inactive: -20.4%
12 | Cc1cc(C)n2nc(CNS(=O)(=O)c3ccccc3)nc2n1 | inactive: 1.93%
13 | CCOC(=O)c1cccc(NC(=O)N2CC=C(c3c[nH]c4ccccc34)CC2)c1 | inactive: -15.7%
14 | CC(=O)c1ccc(NC(=O)CC2Oc3ccc(C)cc3NC2=O)cc1 (configuration not stated) | inactive: -31.9%
15 | CCOC(=O)Cc1c(C(=O)OCC)nnc2c(-c3ccccc3)c(C)nn12 | inactive: -9.14%
16 | COCCNc1oc(-c2ccc(OC)cc2)nc1C#N | inactive: -12.8%
17 | COc1ccc(OC)c(NC(=O)N2CC3CCCN3c3ccccc32)c1 (configuration not stated) | inactive: -7.99%
18 | Cc1cc(Nc2ccc(Br)c(C)c2)n2nc(-c3ccco3)nc2n1 | inactive: -6.43%
19 | CCCNC(=O)N1[C@H](c2cccs2)[C@@H](C)C(=O)[C@@H](C)[C@@H]1c1cccs1 | inactive: -4.61%
20 | CCN(CC)C(=O)Cn1c(=O)n(CCc2ccccc2)c(=O)c2ccccc21 | inactive: 0.445%
21 | COc1cccc(N2CCN(c3ncnc4c3c(-c3ccccc3)cn4-c3cccc(C(F)(F)F)c3)CC2)c1 | inactive: -12.6%
22 | Cc1cccc(NC(=O)CN2C(=O)CSc3ccc(S(=O)(=O)N4CCCC4)cc32)c1C | inactive: -14.5%
23 | COc1cccc(NC(=O)CSc2c3c(nc4ccccc24)CCCC3)c1 | inactive: -13.2%
24 | CCOc1ccc(N(CC)S(=O)(=O)N2CCCC(C(=O)Nc3ccc(OC)c(Cl)c3)C2)cc1 (configuration not stated) | inactive: -14.5%
25 | Cc1nn(C(=O)c2cccc([N+](=O)[O-])c2C)c(C)c1S(=O)(=O)N1CCCCCC1 | inactive: -16.5%
26 | COC(=O)CC(=O)CSc1nc2cc(C(=O)NCC(C)C)ccc2c(=O)n1CCc1ccccc1 | inactive: -5.22%
27 | O=C(Nc1ccccc1C(F)(F)F)N1CC=C(c2c[nH]c3ccccc23)CC1 | inactive: -0.534%
